Assay results taken from article PMC12136788.
This is one part of the list.

B1: ENSG00000070961:be:win_3651|CDS_3pUTR|ENSG00000070961|bound_else_gene|NA|bound_elsewhere_windowed (ssRNA)
RNA: GGGAGUUCUACAGUCCGACGAUCAACAUCACUCUGAUUGUAAGCUGAAUGUUAACACACUAGCUGCAUUGUAAAGAAACAAAUUGAAACUGGGUCUUUUCACAUAUUGUGAUGGACAAGCUAGUAUUCUUGUCUUUGGACUUCCAACAGAGGAUUGAGCAUCA
B2: chr4:125449804:125449905:+|CDS|ENSG00000196159|msi1|FALSE|unique (ssRNA)
RNA: GGGAGUUCUACAGUCCGACGAUCAAACAGAUCUUAAAAUACCAAAAUGUCACUGGCUUCAGUAAUGUGAAUAUCAACAGGCAUAGUUUUAUAGUGACAUCUUCAGAUCGAGGUAAACCUUCCUUAAUUAGUGAGACAACAGUUCAACAGAGGAUUGAGCAUCA
B3: chrX:119243474:119243703:+|3pUTR|ENSG00000101856|msi1|total|mutant (ssRNA)
RNA: GGGAGUUCUACAGUCCGACGAUCGGUAUUUCCCAAAACAGGUAAAAAUCUUAAAUGUGCACCAAGAGCAAAGGAUCAACUUUCCGUCAUGAUGUUCUGUAAAGACAACAAAUCCCUUUUUUUUUCUCAAUUGACUUAACUGCACAACAGAGGAUUGAGCAUCA
B4: chr17:47658542:47658643:+|CDS|ENSG00000108424|unk|FALSE|unique (ssRNA)
RNA: GGGAGUUCUACAGUCCGACGAUCGAUUCUGACUGCCAUAAUCCAGGGGAUGAGGAAAGAAGAGCCUAGUAAUAAUGUGAAGCUAGCUGCUACGAAUGCACUCCUGAACUCAUUGGAGUUCACCAAAGCAAACUUUGAUAAAGACAACAGAGGAUUGAGCAUCA
B5: chrX:48915045:48915146:-|CDS|ENSG00000102096|unk|FALSE|unique (ssRNA)
RNA: GGGAGUUCUACAGUCCGACGAUCCCAGCACUGCCAUUCCCGUGGAGUUGUCCAUCGUGACAUCAAGGAUGAGAACAUCCUGAUAGACCUACGCCGUGGCUGUGCCAAACUCAUUGAUUUUGGUUCUGGUGCCCUGCUUCAUGACAACAGAGGAUUGAGCAUCA
B6: ENSG00000071553:stop:overlap|stop_codon|ENSG00000071553|stop_codon|NA|stop_codon (ssRNA)
RNA: GGGAGUUCUACAGUCCGACGAUCCCCCCCAUGACACUGACGCCCAUUCCCCAAGGGAAGCUUCAGUGACCUUGUCCCAACUGUAGGGAGGUGUGGGUCGUCUCAUGGGAAGGCCUGUAGUAAACGCUUCAGUGGGCAUGGCGACAACAGAGGAUUGAGCAUCA
B7: chr19:7961171:7961272:-|3pUTR|ENSG00000066044|msi1|total|mutant (ssRNA)
RNA: GGGAGUUCUACAGUCCGACGAUCGGCGGGAUUCCCGCUUCUGAAACUCCCCCUGGAGUCUCACUCCCACACAUGCCCACCGCCCGCAUUCAACAGAGAACUCUGUCUUAAGCUUCAACUGUGAAAAUGAUGACGGGCUUGCCGCAACAGAGGAUUGAGCAUCA
B8: chr11:214995:215097:+|3pUTR|ENSG00000177963|unk|total|mutant (ssRNA)
RNA: GGGAGUUCUACAGUCCGACGAUCCCUCCUUCCUACUGGUUCCGACUACACUUACAACAAGGAAAAUGCCCCUCGUGUGACCACCGAUUGAGAUUUAUACCACAUACCACACACCGCCACAGAAACAUCAUCUUGAAAUAAAGACAACAGAGGAUUGAGCAUCA
B9: chr19:22391518:22392981:-|CDS|ENSG00000197360|control|control|control (ssRNA)
RNA: GGGAGUUCUACAGUCCGACGAUCCAUAAGAGAAUUCAUGCUGGAGAGAAAUUCUACAAAUGUGAAGUAUGUAGCAAAGCCUUUAGCCGGUUCUCACACCUUACUACACAUAAGAGAAUUCAUACUGGAGAGAAGCCCUACAAACAACAGAGGAUUGAGCAUCA
B10: chr14:52864448:52864598:-|CDS|ENSG00000073712|unk|total|mutant (ssRNA)
RNA: GGGAGUUCUACAGUCCGACGAUCGAUGGCAGCCUGCAGAUCCGCCUCCAAAGGCAAGACCAUGGCGGACAGUUCUUACAACUCCGAAGUUCAGAAUAUUCUUUCCUUUCUGAAGAUGCAGCAUUUAAACCCAGAUCCUCAGUUCAACAGAGGAUUGAGCAUCA
B11: chr10:97759570:97759671:+|3pUTR|ENSG00000155256|msi1|FALSE|unique (ssRNA)
RNA: GGGAGUUCUACAGUCCGACGAUCGACUGAGCGAGUGGACUUAGGGCUGGGCAGGCAGUAGCCACCAGAGGGCAGCAGCGAACUAGGCCAGGCCUGACUGGGGUCUGAAGAUCAGGGUCAGUGUGGCUGUGCCUGGGAAUUCCACAACAGAGGAUUGAGCAUCA
B12: chr19:57572896:57572997:-|CDS|ENSG00000083817|unk|FALSE|unique (ssRNA)
RNA: GGGAGUUCUACAGUCCGACGAUCCAUCGGAGAAUCCACACUGGAGAAAGGCCUUAUGUGUGUGGUCAGUGUGGGAAAUCAUUUAGCCAAAGAGCCACCCUCAUUAAACAUCACAGAGUUCACACUGGAGAAAGGCCUUACGAGCAACAGAGGAUUGAGCAUCA
B13: chr11:71804996:71807656:-|three_prime_utr|ENSG00000289716|control|control|control (ssRNA)
RNA: GGGAGUUCUACAGUCCGACGAUCGAGCCCAAGGAUGAAGGGGGCUCCCUCACUCUGUUACUGUGAAGAGGAAGCCUGAGGUGUAGCAGGCCCAGGCCCCAGAAGUAUGGAAAAAAAUGAGGUAGGGAGGGAGGGGACCUCAGGCAACAGAGGAUUGAGCAUCA
B14: ENSG00000105576:stop:overlap|stop_codon|ENSG00000105576|stop_codon|NA|stop_codon (ssRNA)
RNA: GGGAGUUCUACAGUCCGACGAUCAGUUCUCUGAGCAAUUCCCGCCGCUGCUCAAGGAGAGGCUGGCGGCUUUCUAUGGGGUCUAGGUGAUCAUGGAGACUGCCAGGUUUCUGUCUGCGUCGUCGUCGGAGGGAUUACUGGGGACAACAGAGGAUUGAGCAUCA
B15: chr7:101138926:101139078:+|3pUTR|ENSG00000106366|msi1|total|mutant (ssRNA)
RNA: GGGAGUUCUACAGUCCGACGAUCUAUUUUAAAGACCAAUUUAUGGGAGAAUUGCACACAGAUGUGAAAUGAAUGUAAUCUAACCGAAGCCUAAUCAGCCCACCAUGUUCUCCACUGAAAAAUCCUCUUUCUUUGGGGUUUUUCCAACAGAGGAUUGAGCAUCA
B16: chr6:26414640:26414744:+|3pUTR|ENSG00000026950|unk|total|mutant (ssRNA)
RNA: GGGAGUUCUACAGUCCGACGAUCCAGGCAGAGCAAAUACCCCCGAGAUUCUCUGUGAUACCGGAAAUUUGGAUGAAGGGAGCCCGAAGAAAUACAGGGAUUUUUUUUUUUUUUUAAGAUGGAGUCUUACUCUGUUGCCCGGCUCAACAGAGGAUUGAGCAUCA
B17: chr1:246907611:246907713:-|CDS|ENSG00000153207|unk|FALSE|bound_elsewhere (ssRNA)
RNA: GGGAGUUCUACAGUCCGACGAUCUGAAGUACCACACAUUAGAGAAAGUGUAAUGAGACAAGGGCGCCAUCUGUGUUUCCAGUUAGUAAGUCCAACAGGAACAGCUGUUUCAACUCUUAGUUACAUAAGCAGGACAAAUCAGCUCAACAGAGGAUUGAGCAUCA
B18: chr1:162785649:162785750:+|3pUTR|ENSG00000162733|unk|FALSE|unique (ssRNA)
RNA: GGGAGUUCUACAGUCCGACGAUCUGAAUGUUGUUUUUUUGAAUGAACAUAAGAUAGAAACAAAAACUUCUCAUCCAGUUAACUAGAGUGAAUGUAGGGAGAAUUGUUUUGCUUGUAACAUGGAGAGUUUAUUUUCAAGUGAGGCAACAGAGGAUUGAGCAUCA
B19: chr1:92323927:92324037:+|CDS|ENSG00000122484|unk|total|mutant (ssRNA)
RNA: GGGAGUUCUACAGUCCGACGAUCAGUGCAGAGCAUUUUAAGAGAAAAUUUGCCAAAUCAAACCAAGUGUCCCGGUCAGUGUCCCGUUCAGUGCAGGUGUGUCCUGAAGUUGGAAAGAGAAACUUACUUAAAGUUUUGAAGGAGCAACAGAGGAUUGAGCAUCA
B20: chr1:11013840:11013957:+|CDS|ENSG00000120948|unk|FALSE|unique (ssRNA)
RNA: GGGAGUUCUACAGUCCGACGAUCGGCGUGUGGGCUUCGCUACAGGAAUCCAGUGUCUCAGUGUAUGAGAGGUGUCCGGCUGGUAGAAGGAAUUCUGCAUGCCCCAGAUGCUGGCUGGGGAAAUCUGGUGUAUGUUGUCAACUACAACAGAGGAUUGAGCAUCA
B21: ENSG00000198589:be:win_6151|CDS|ENSG00000198589|bound_else_gene|NA|bound_elsewhere_windowed (ssRNA)
RNA: GGGAGUUCUACAGUCCGACGAUCACUCUGUCAUCCGUGGAUGAGAAAGAUUUAGAGAAUCUUGCCGGUCCUGUUAGCCUGAGCACACCAGCUCAGCUUGUGGCCCCCUCUGUUGUAGUAAAGGGCACUCUUUCUGUCACCUCCCAACAGAGGAUUGAGCAUCA
B22: chr9:15171111:15171212:-|3pUTR|ENSG00000155158|unk|total|mutant (ssRNA)
RNA: GGGAGUUCUACAGUCCGACGAUCCUGCUUUAAAUGAUAUGUAAAAUAUCAAUAAUUUUUACACUUAAGAUGUUGGUAAGACCCCGUUUUCUAAUCUCUCCCGCACUGUGAUGUCUCCUUGCCGAUAAUCUGGACCUUGCUCCGCAACAGAGGAUUGAGCAUCA

molecular target: T1, UNK ZnF1-6 (called full-length) (human, UniProt Q9C0B0 30-357); experiment: nsRBNS (natural sequence RNA bind-n-seq); RBNS binding buffer (assumed for nsRBNS): 25 mM Tris pH 7.5, 150 mM KCl, 3 mM MgCl2, 0.01% Triton X-100, 500 ug/ml BSA, 20 U/ml SUPERase-In, 4 C; UNK is unkempt and MSI1 is Musashi-1; names of the RNAs are library labels; protein concentration not given here; high values mean tight binding
T1 sequence: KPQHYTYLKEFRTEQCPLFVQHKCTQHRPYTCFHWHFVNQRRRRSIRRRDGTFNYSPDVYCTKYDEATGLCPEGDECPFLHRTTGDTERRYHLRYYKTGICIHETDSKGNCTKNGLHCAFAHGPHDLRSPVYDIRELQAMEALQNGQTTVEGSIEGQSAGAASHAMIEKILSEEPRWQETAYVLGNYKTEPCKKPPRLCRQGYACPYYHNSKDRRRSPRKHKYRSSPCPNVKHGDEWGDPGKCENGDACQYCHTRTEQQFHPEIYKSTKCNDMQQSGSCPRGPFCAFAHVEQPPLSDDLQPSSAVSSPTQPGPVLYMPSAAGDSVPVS

Binder	binding signal [enrichment R]
B1	0.339
B2	1.11
B3	0.549
B4	1.3
B5	0.788
B6	0.844
B7	0.433
B8	0.61
B9	0.419
B10	0.535
B11	1.37
B12	0.644
B13	1.01
B14	0.547
B15	0.352
B16	1.51
B17	0.797
B18	0.683
B19	0.623
B20	0.762
B21	0.587
B22	0.527
